From PubChem BioAssay AID1345083 (National Center for Advancing Translational Sciences (NCATS), 2018)
Among all 94,000 compounds or so, about 6,200 (6.6%) were called active. The inconclusive results got no clear call from the source; some entries with a clear call stand among them for comparison. The call rests on the fitted dose curve; in most records, active means well fitted inhibition curve with a large enough effect; inconclusive means small, poorly fitted or top-dose-only effect; inactive means flat fitted curve, though single readings scatter. A potency beside an inconclusive call is a rough fit, not a confirmed value.

assay: Cytotoxic Profiling in HEK 293 Cell Line of Diverse Libraries Using Quantitative High-Throughput Screening; conditions: HEK 293 viability, ATP luminescence (CellTiter-Glo), 48-72 h; activity change, negative = cytotoxicity: at 115 µM (top of the series) unless noted; series mostly up to 115 µM; further: nearly all actives have a fitted effect of over 60% in size
How it was run: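 CellTiter-Glo luminescence (cellular ATP) was read after 48 or 72 hr of compound exposure at 37 degree Celsius. Cells were HEK 293 plated at 250 cells/well.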
On the % scale 0 is the no-effect control and ±100 the full control effect; potency means the concentration at half of the fitted maximal effect; tags describe the fitted curve by direction and shape.

Row | Structure (SMILES) | Potency | activity change, negative = cytotoxicity | outcome
1 | CC(C)=CCC1(CO)CCCN(Cc2csc(C)n2)C1 (stereo unspecified) | inconclusive: 79.4 µM [inhibitor, single point] | – | –
2 | COc1cccc(CNC(=O)CNC(=O)c2cccc(-c3ccc(C(F)(F)F)cc3)c2)c1 | active: 22.4 µM | – | –
3 | CCn1nccc1C(=O)N1CCC2(CC1)CC(N(Cc1ccccc1)C1CC1)CCO2 (stereo unspecified) | active: 44.7 µM | – | –
4 | Cc1ccccc1-c1nccc2c(=O)cc(C3=CCOCC3)oc12 | inconclusive: 56.2 µM [inhibitor, full curve, poor fit] | – | –
5 | O=C(c1ccncc1)N1CCC2(CC1)CC(N1CCCC1)CCO2 (stereo unspecified) | – | inactive: 10.5% | –
6 | CN(Cc1ccccc1)Cc1cc(C[C@H]2CNCC[C@H]2CC(=O)NCc2cccs2)no1 | inconclusive: 50.1 µM [inhibitor, partial curve, poor fit] | – | –
7 | O=C(NCc1ccc(F)cc1)c1cnc2n1CCN(CCc1ccccc1)CC2 | inconclusive: 5.62 µM [inhibitor, full curve, poor fit] | – | –
8 | Cn1c2c(c3cc(F)ccc31)CN(C(=O)Nc1ccc(F)c(Cl)c1)CC2 | active: 31.6 µM | – | –
9 | O=C(Nc1ccc(Cl)cc1)NC1CCN(C(=O)c2ccc(-c3cncnc3)cc2)CC1 | inconclusive: 50.1 µM [inhibitor, partial curve, poor fit] | – | –
10 | C[S+](=O)([O-])N1CC2(CCCN2CC2CCCCC2)Cc2ccccc21 (stereo unspecified) | inconclusive: 79.4 µM [inhibitor, partial curve] | – | –
11 | Cc1noc([C@@H]2C[C@H](NS(=O)(=O)c3cccc4cccnc34)CN2C)n1 | – | – | inactive [at 172 µM]
12 | CCCN(C)C(=O)c1csc(N2CCN(c3cccc(Cl)c3)CC2)n1 | active: 31.6 µM | – | –
13 | O=C(C1CC1)N1CCCC1c1noc(COc2ccc(F)cc2)n1 (stereo unspecified) | – | inactive: -12.7% | –
14 | CC1CCC2(CC1)OCC(C(=O)NCc1ccccc1)N2C(=O)c1ccc(Cl)c(Cl)c1 (stereo unspecified) | inconclusive: 22.4 µM [inhibitor, full curve, poor fit] | – | –
15 | CCN1CCN(c2ccc(-c3nc(CCCc4ccccc4)no3)cn2)CC1 | inconclusive: 89.1 µM [inhibitor, partial curve, poor fit] | – | –
16 | Cc1nn(-c2ccccc2)c2c1C(C1CC1)N(C1CN(C(=O)c3ccc(F)cc3)C1)C2=O (stereo unspecified) | active: 44.7 µM | – | –
17 | CC1=C[C@@H](CNC(=O)c2ccncc2)[C@H](C(C)C)C[C@H]1CC(=O)N1CCN(C)CC1 | – | inactive: -16.2% [at 172 µM] | –
18 | N#Cc1ccc(C(=O)N2CCCN(CCc3ccccc3)c3ccccc32)cc1 | inconclusive: 11.2 µM [inhibitor, full curve, poor fit] | – | –
19 | CCNC(=O)c1cccnc1OC1CCN(C(=O)c2ccccc2OC)C1 (stereo unspecified) | – | inactive: 1.19% | –
20 | CCOc1ccc2c(n1)CCN(C(=O)Cc1ccc(F)cc1)C2 | inconclusive: 79.4 µM [inhibitor, single point] | – | –
21 | CNC(=O)C1CCN(c2nccc(Nc3ccc(C)cc3)n2)CC1 | inconclusive: 112 µM [inhibitor, partial curve, poor fit] | – | –

Row | Structure (SMILES) | Potency | activity change, negative = cytotoxicity | outcome
22 | O=C1CC(c2ccccc2)N(C(=O)c2ccccn2)CCCCCN1 (stereo unspecified) | – | – | inactive
23 | O=C(NCc1ccccc1F)C1CCCN(c2ccnc3ccnn23)C1 (stereo unspecified) | inconclusive: 44.7 µM [inhibitor, partial curve, poor fit] | – | –
24 | Cc1cc2cc(C(=O)N3CCC4(CC3)C(=O)N(C)c3ccccc34)ccc2o1 | inconclusive: 50.1 µM [inhibitor, partial curve, poor fit] | – | –
25 | C[C@H]1[C@@H]2[C@@H](O)C([C@H](C)C(=O)NCc3ccc(F)cc3)CC[C@@]2(C)CC[C@@H]1NC(=O)c1cnccn1 (stereo partly specified) | – | inactive: -29.4% | –
26 | Cc1cc(F)ccc1-c1[nH]nc2ncc(-c3c(C)noc3C)nc12 | inconclusive: 50.1 µM [inhibitor, partial curve, poor fit] | – | –
27 | O=C1c2c(nc(CNc3cccc(F)c3)n2Cc2ccccc2)NCCN1CCN1CCOCC1 | inconclusive: 89.1 µM [inhibitor, single point] | – | –
28 | CCC1=C(C(=O)OC)C(c2ccccc2F)N2C(CC(=O)NCC3CCCO3)=CSC2=N1 (stereo unspecified) | – | inactive: -4.08% | –
29 | COc1ccccc1-c1ccc(CN2CCCCC2C(=O)N2CCOCC2)cc1 (stereo unspecified) | inconclusive: 79.4 µM [inhibitor, partial curve, poor fit] | – | –
30 | Cc1ccc(NC(=O)CN2C(=O)NC3(CCC(C)CC3)C2=O)cc1Cl (stereo unspecified) | inconclusive: 56.2 µM [inhibitor, partial curve, poor fit] | – | –
31 | O=C(NCc1ccc(C(F)(F)F)cc1)C1CCCN1C(=O)c1cccc(-c2ccccn2)c1 (stereo unspecified) | inconclusive: 89.1 µM [inhibitor, single point] | – | –
32 | CC(C)NC(=O)c1ccc(Cn2ccn3nc4c(c3c2=O)CCCC4)cc1 | inconclusive: 35.5 µM [inhibitor, partial curve] | – | –
33 | COc1ccc(-c2cc(N3CCC(NC(=O)c4ccc(C)cc4)C3)n[nH]2)cc1 (stereo unspecified) | inconclusive: 70.8 µM [inhibitor, partial curve, poor fit] | – | –
34 | COc1ccc(-c2ccnc(N[C@H]3CO[C@H]4[C@@H]3OC[C@@H]4NC(=O)Nc3ccc(C(C)=O)cc3)n2)cc1 | inconclusive: 89.1 µM [inhibitor, single point] | – | –
35 | CCOc1ccccc1CN1CCC2(CCN(C(=O)C(C)(C)C)CC2)Oc2ccccc21 | active: 39.8 µM | – | –
36 | Cn1cc2c3c(cccc31)CN(C(=O)c1ccccc1Br)CC2 | inconclusive: 79.4 µM [inhibitor, partial curve, poor fit] | – | –
37 | CN(C)C(=O)c1cc(-c2ccc(F)cc2)c2nncn2n1 | – | inactive: 3.34% [at 172 µM] | –
38 | O=C(Cc1ccc(Cl)cc1)N1CCCN(c2cc(-c3ccccc3)[nH]n2)CC1 | inconclusive: 50.1 µM [inhibitor, partial curve, poor fit] | – | –
39 | O=C(Cc1ccc(F)cc1)N1CCc2nc(C3CC3)nc(-c3ccc(O)cc3)c2CC1 | inconclusive: 56.2 µM [inhibitor, partial curve, poor fit] | – | –
40 | CN1CCOc2c(C(=O)NCCC(N)=O)cc(-c3ccccc3OC(F)(F)F)cc21 | inconclusive: 126 µM [inhibitor, single point] | – | –
41 | CC(=O)Nc1cccc(-c2ccnc(-c3nnc(C)n3CCN3CCOCC3)c2)c1 | – | inactive: -11.6% [at 172 µM] | –
